Results as given in article PMC4336329 (PLoS ONE, 2015).
Out of some 310,000 compounds screened, about 14,000 (4.5%) showed an effect of 50% or more. Effects have a minus sign here. This is one part of the list.

target: human ether-à-go-go-related gene (hERG) potassium channel (human, UniProt Q12809); test: primary screen, population patch clamp on CHO cells stably expressing hERG
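Further: peak tail current of the secondary pulse compared with the same well before compound.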

human ether-à-go-go-related gene (hERG) potassium channel, sequence (Q12809 whole entry, looked up): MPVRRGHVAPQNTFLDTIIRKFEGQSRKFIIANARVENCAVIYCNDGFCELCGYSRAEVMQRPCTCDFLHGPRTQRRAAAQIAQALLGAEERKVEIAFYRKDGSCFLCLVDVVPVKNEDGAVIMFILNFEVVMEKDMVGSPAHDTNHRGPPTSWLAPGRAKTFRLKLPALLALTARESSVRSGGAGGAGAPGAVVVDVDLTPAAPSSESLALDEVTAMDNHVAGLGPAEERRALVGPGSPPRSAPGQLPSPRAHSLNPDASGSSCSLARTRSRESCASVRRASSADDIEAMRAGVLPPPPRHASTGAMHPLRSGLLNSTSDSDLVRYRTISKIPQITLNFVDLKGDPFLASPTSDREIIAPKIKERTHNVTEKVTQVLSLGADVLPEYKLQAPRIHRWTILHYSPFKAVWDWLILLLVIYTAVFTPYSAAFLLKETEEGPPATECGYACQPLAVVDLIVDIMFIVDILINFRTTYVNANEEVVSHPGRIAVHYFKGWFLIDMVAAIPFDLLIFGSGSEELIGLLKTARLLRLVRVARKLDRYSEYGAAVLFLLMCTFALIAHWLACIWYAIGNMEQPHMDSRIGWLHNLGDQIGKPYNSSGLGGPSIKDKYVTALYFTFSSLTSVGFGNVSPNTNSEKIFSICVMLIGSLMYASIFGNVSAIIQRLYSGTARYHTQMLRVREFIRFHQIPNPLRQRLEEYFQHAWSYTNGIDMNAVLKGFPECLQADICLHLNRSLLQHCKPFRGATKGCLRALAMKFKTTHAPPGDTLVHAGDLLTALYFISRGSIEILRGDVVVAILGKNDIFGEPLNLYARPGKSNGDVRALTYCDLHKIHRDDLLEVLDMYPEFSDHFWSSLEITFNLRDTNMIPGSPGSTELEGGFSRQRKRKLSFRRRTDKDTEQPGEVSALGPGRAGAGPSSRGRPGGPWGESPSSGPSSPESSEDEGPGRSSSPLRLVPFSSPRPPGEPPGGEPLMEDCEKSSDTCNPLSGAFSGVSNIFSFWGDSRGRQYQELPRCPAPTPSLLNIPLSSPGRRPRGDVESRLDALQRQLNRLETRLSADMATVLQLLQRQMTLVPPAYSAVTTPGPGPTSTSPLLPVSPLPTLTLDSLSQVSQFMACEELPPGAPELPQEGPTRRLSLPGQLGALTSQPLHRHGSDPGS

First: CCCS(=O)(=O)NCCc1cc2ccc(C)cc2[nH]c1=O
Second: Cc1ccc(C)c(OCCC(=O)N2CCN(S(=O)(=O)c3cc(F)ccc3F)CC2)c1
The “hERG current change (%, negative = inhibition) at 10uM” value of the first is higher: -9.47% for the first, -18% for the second.

Going from `OCC1(Cc2ccccc2)CCN(Cc2cccc(F)c2F)CC1` to `O=C(CSCc1c(F)cccc1Cl)NCCc1ccccc1`, the “hERG current change (%, negative = inhibition) at 10uM” value rises from -11.3% to 2.98%.

First: CCCC(C)NC(=O)COc1ccc(S(=O)(=O)N2CCCC2)cc1 (stereo not drawn)
Second: CC(CC(=O)Nc1cccc(S(=O)(=O)N2CCCCC2)c1)c1ccccc1 (stereo not drawn)
The “hERG current change (%, negative = inhibition) at 10uM” value of the first is higher: 10.6% for the first, -13.9% for the second.

Going from `CCOC(=O)C1CCN(c2nnc(N3CCCC3=O)s2)CC1` to `COc1ccc(CCNC(=O)C2CC(=O)N(C3CCCC3)C2)cc1OC` (stereo not drawn), the “hERG current change (%, negative = inhibition) at 10uM” value falls from 16.8% to 3.07%.

Compared with `CC(=O)Oc1ccc(/C=N\NC(=O)c2cc3c(ccc4ccccc43)o2)cc1`, `COc1ccc(/C=N/NC(=O)c2cccc(Br)c2)cc1CN1CCOCC1` is lower in “hERG current change (%, negative = inhibition) at 10uM” value: 10.6% for the first, -82.4% for the second.

First: Cn1c(CS(=O)Cc2c(Cl)cccc2Cl)nnc1SCc1ccc(Cl)cc1 (stereo not drawn)
Second: CC(C)(C)NC(=O)c1cccc(NC(=O)CSc2ccc(Cl)cc2)c1
The “hERG current change (%, negative = inhibition) at 10uM” value of the first is lower: -56.2% for the first, -35.1% for the second.

Going from `COc1ccc2nc(SCC(=O)NCc3ccc4c(c3)OCO4)[nH]c2c1` to `CCCCn1c(SCC(=O)Nc2ccc3c(c2)OCO3)nc2c1c(=O)n(C)c(=O)n2C`, the “hERG current change (%, negative = inhibition) at 10uM” value falls from -12.7% to -17.2%.

Compared with `Cl.O=C(CCl)N1CCN(CC(=O)N2CCCC2)CC1`, `CC1CCC2(CC1)NC(=O)N(CC(=O)Nc1cccc(S(=O)(=O)N3CCCC3)c1)C2=O` (stereo not drawn) is lower in “hERG current change (%, negative = inhibition) at 10uM” value: 12.9% for the first, 2.06% for the second.

Compared with `Cc1ccc(-c2c(C(=O)N/N=C/c3cccnc3)nnn2-c2nonc2N)cc1`, `Cc1ccc(C(=O)OCC(=O)Nc2ccccc2N2CCOCC2)cc1` is lower in “hERG current change (%, negative = inhibition) at 10uM” value: 8.65% for the first, -6.35% for the second.

First: CCCN(CCC)C(=S)NC(=O)c1ccc(Cl)cc1Cl
Second: Cc1cc(C(=O)C(=O)N(C)C)c(C)n1-c1ccc(Cl)cc1
The “hERG current change (%, negative = inhibition) at 10uM” value of the first is higher: 9.72% for the first, 2.27% for the second.

Compared with `Cc1cn(S(=O)(=O)c2ccc(Br)cc2)cn1`, `Cc1ccc(S(=O)(=O)NC2=NCN(C)CN2)cc1[N+](=O)[O-]` is lower in “hERG current change (%, negative = inhibition) at 10uM” value: -5.63% for the first, -13.3% for the second.

Compared with `COc1ccccc1NC(=O)Nc1nnc(-c2ccco2)s1`, `COc1ccccc1NC(=O)C(=O)Nc1ccccn1` is lower in “hERG current change (%, negative = inhibition) at 10uM” value: 24.6% for the first, -2.36% for the second.

Compared with `COc1cccc(-c2nc(C(N)=O)c3[nH]c(=O)n(-c4ccccc4)c3n2)c1OC`, `COc1ccc(/C=N/Nc2ccc(C(=O)O)cc2)cc1OC` is higher in “hERG current change (%, negative = inhibition) at 10uM” value: -14.1% for the first, 13.9% for the second.

Compared with `CCn1cc(C(=O)N(CCC(C)C)c2c(N)n(Cc3ccccc3)c(=O)[nH]c2=O)c(=O)c2ccc(C)nc21`, `Cn1c(=O)c2c(nc(NCCO)n2CCc2ccccc2)n(C)c1=O` is higher in “hERG current change (%, negative = inhibition) at 10uM” value: 3.64% for the first, 5.17% for the second.

Going from `CCc1ccc(N(C(=O)c2ccco2)C(C(=O)NC2CCCC2)c2ccco2)cc1` (stereo not drawn) to `O=C(CS(=O)CC(=O)N(CC(=O)NC1CCCC1)c1ccc2c(c1)OCCO2)Nc1ccc(F)cc1` (stereo not drawn), the “hERG current change (%, negative = inhibition) at 10uM” value falls from 13.3% to -10.6%.

First: O=c1cc(N2CCCCC2)c(-c2ccccc2)nn1Cc1ccc(Cl)cc1Cl
Second: O=C(O)c1cn(Cc2cccnc2)c(=O)c2ccccc12
The “hERG current change (%, negative = inhibition) at 10uM” value of the first is lower: -1.2% for the first, 13.5% for the second.

Compared with `CC1(C)N=C(c2ccccc2)[C@@H]2C(c3ccc([N+](=O)[O-])cc3)N21` (stereo partly drawn), `CCOCCCNc1nc(-c2ccccc2)nc2ccccc12.Cl` is higher in “hERG current change (%, negative = inhibition) at 10uM” value: -31.6% for the first, -27.5% for the second.

Going from `Cc1cc(NC(=O)c2ccccc2)ncc1NC(=O)c1cccs1` to `O=C(Nc1ccccc1C(=O)O)c1ccc(Br)c(S(=O)(=O)NCc2ccccc2)c1`, the “hERG current change (%, negative = inhibition) at 10uM” value rises from 10.5% to 27.2%.

First: O=C(COC(=O)c1cc(Br)ccc1O)NNC(=O)c1ccc(Cl)cc1
Second: CCc1nnc(NS(=O)(=O)c2ccc(NC(=S)NC(=O)c3ccc(OC)cc3)cc2)s1
The “hERG current change (%, negative = inhibition) at 10uM” value of the first is higher: 12.7% for the first, -6.62% for the second.

Going from `O=C(/C=C/c1cccc2ccccc12)NCCC1=CCCCC1` to `O=c1c2ccccc2nc(/C=C/c2ccccc2)n1CCCO`, the “hERG current change (%, negative = inhibition) at 10uM” value falls from 1.49% to -8.23%.

Compared with `COc1ccc(NC(=O)c2ccc(C)o2)c([N+](=O)[O-])c1`, `COC(=O)c1cc2c(ccn2-c2ccc(F)cc2)n1CC(=O)C(C)(C)C` is higher in “hERG current change (%, negative = inhibition) at 10uM” value: 6.33% for the first, 14.3% for the second.

Compared with `COCCCN1C(=O)C(=O)/C(=C(/O)c2ccc(OC(C)C)cc2)C1c1ccncc1` (stereo not drawn), `CCCCN1CC(=O)N2[C@H](c3ccc(Cl)cc3)[C@@H]3C(=O)N(CC)C(=O)[C@@H]3[C@]2(C)C1=O` is lower in “hERG current change (%, negative = inhibition) at 10uM” value: 15% for the first, -11.1% for the second.

First: NC(=O)CSc1nnc(NC(=O)C2CC(=O)N(c3ccc(F)cc3)C2)s1 (stereo not drawn)
Second: Cc1ccccc1C(=O)Nc1nnc(SCC(=O)NCc2ccco2)s1
The “hERG current change (%, negative = inhibition) at 10uM” value of the first is higher: 26.1% for the first, 14.8% for the second.

Going from `CSc1nc(-c2ccccc2)nc(N)c1C(C)=O` to `Cc1c(C)n(CCC(=O)O)c2ccccc12`, the “hERG current change (%, negative = inhibition) at 10uM” value rises from 4.13% to 27.2%.

First: COc1cc2c3c(c1OC)C1(C=CC(=O)C=C1)CC3N(C(C)=O)CC2 (stereo not drawn)
Second: COc1cc(OC)c(C2CC(=O)N3CN(c4ccccc4)CSC3=C2C#N)cc1OC (stereo not drawn)
The “hERG current change (%, negative = inhibition) at 10uM” value of the first is lower: -1.44% for the first, 15% for the second.

Compared with `S=C(NCc1ccccc1)Nc1ccc(Oc2ccccc2)cc1`, `O=C(O)CC(NC(=O)Cc1ccccc1)c1ccccc1` (stereo not drawn) is higher in “hERG current change (%, negative = inhibition) at 10uM” value: 8.85% for the first, 11.1% for the second.

First: Cc1cc(C)c(C(=O)N2CCCC(CNS(=O)(=O)c3cccs3)C2)o1 (stereo not drawn)
Second: NC(=O)c1ccsc1NC(=O)COC(=O)C1CC2CCCC(C1)C2=O (stereo not drawn)
The “hERG current change (%, negative = inhibition) at 10uM” value of the first is lower: 3.03% for the first, 25% for the second.

First: COc1cc2c(cc1O)C[C@H]1NCCc3cc4c(c-2c31)OCO4
Second: CC(=NCCc1ccccc1)C1=C(O)CCC1=O
The “hERG current change (%, negative = inhibition) at 10uM” value of the first is lower: -46.6% for the first, 3.34% for the second.

With `CCn1c(SCC(=O)N/N=C/C=C/c2ccco2)nc2ccccc21` the “hERG current change (%, negative = inhibition) at 10uM” value was -39.1%.
